Where “and” joins values, the source holds several entries; their conditions need not be identical. Equal entries are not always repeated. Inconclusive means that the source gave no clear call. Such entries were picked first, then a sample of the others. For some of these results: A potency beside an inconclusive call is a rough fit, not a confirmed value. Calls of active or inactive are those of the source. Unless noted, calls come from the whole dose curve.
Assays:
[1] = qHTS assay to identify small molecule antagonists of the sonic hedgehog signaling (Shh) pathway (AID 1259369); note: nearly all actives have a fitted effect of over 45% in size; note: potency is the fitted concentration of half-maximal effect; for activity change, negative = inhibition: % is set by controls: 0 for no effect and ±100 for the full control effect
Outline: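 Screening used 3T3Gli1-Luc cells at 2,000 per well, compounds delivered in DMSO, and conditioned medium as agonist stimulus; plates incubated 24hr at 37 C and 5% CO2 before a 30min luciferase step.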

[2] = qHTS assay to identify small molecule agonists of the estrogen receptor beta (ER-beta) signaling pathway - cell viability counter screen (AID 1259380; active = well fitted curve in the direction sought with a large enough effect in the repeat runs; inconclusive = weak or mixed curves; inactive = no such curve, though single readings can be large; an effect the other way counts as inactive or inconclusive; note: nearly all actives have a fitted effect of over 30% in size; note: potency is the fitted concentration of half-maximal effect)
Outline: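 Viability of ER-beta-UAS-bla HEK293T cells was determined by CellTiter-Glo luminescence following 16 hr treatment with test compounds at 37C.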

[3] = qHTS assay to identify small molecule antagonists of the progesterone receptor (PR) signaling pathway - cell viability counter screen (AID 1346798; active = well fitted curve in the direction sought with a large enough effect in the repeat runs; inconclusive = weak or mixed curves; inactive = no such curve, though single readings can be large; an effect the other way counts as inactive or inconclusive; note: potency is the fitted concentration of half-maximal effect; nearly all actives have a fitted effect of over 50% in size)
Outline: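 Luminescence readout (CellTiter-Glo, 30 min, RT) of viability in PR-UAS-bla HEK293T cells exposed to compound and R5020 agonist for 16 hr at 37C, 5% CO2; run in the same wells as the beta-lactamase reporter read.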

[4] = qHTS assay to identify small molecule agonists of the progesterone receptor (PR) signaling pathway - cell viability counter screen (AID 1346799); note: nearly all actives have a fitted effect of over 45% in size; note: potency is the fitted concentration of half-maximal effect
Outline: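 HEK293T PR-UAS-bla, 3,000 cells/well, 2% charcoal-stripped FBS; 6 h settle, compound 16 h at 37C/5% CO2; LiveBLAzer 2 h RT, then CellTiter-Glo 30 min RT, luminescence read.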

[5] = qHTS assay to identify small molecule antagonists of the TGF-beta/Smad signaling pathway - cell viability counter screen (AID 1346824; active = well fitted curve in the direction sought with a large enough effect in the repeat runs; inconclusive = weak or mixed curves; inactive = no such curve, though single readings can be large; an effect the other way counts as inactive or inconclusive; note: % is set by controls: 0 for no effect and ±100 for the full control effect; nearly all actives have a fitted effect of over 50% in size)
Outline: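 Cytotoxicity counter-screen run in the same wells as the beta-lactamase Smad reporter read: CellTiter-Glo luminescence after 30 min at room temperature. HEK 293T SBE-bla cells had 5 hr compound exposure at 37 C with TGF-beta1 (0.25 ng/mL stock).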

[6] = qHTS assay to identify small molecule agonists or antagonists of the thyroid stimulating hormone receptor (TSHR) signaling pathway - wild type cell line counter screen (AID 1259384); details: HEK293 wild type, cAMP HTRF counter-screen; cAMP activity change: at 92.4 µM (top of the series), hits give high values unless noted; note: potency is the fitted concentration of half-maximal effect; for cAMP activity change: % is set by controls: 0 for no effect and ±100 for the full control effect
Outline: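 Counter screen in untransfected Hek293: compounds (15-point titration, triplicate) plus phosphodiesterase inhibitor Ro20-1724 added after 18 h plating; 30 min RT. Intracellular cAMP via competitive d2/cryptate immunoassay, 1 h incubation.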

[7] = target: Thyrotropin receptor (Homo sapiens) (UniProt P16473); experiment: qHTS assay to identify small molecule antagonists of the thyroid stimulating hormone receptor (TSHR) signaling pathway (AID 1259385); details: TSHR-HEK293 cAMP HTRF, TSH-stimulated antagonist mode; activity change, negative = inhibition: at 92.4 µM (top of the series) unless noted; note: nearly all actives have a fitted effect of over 20% in size; note: potency is the fitted concentration of half-maximal effect; for activity change, negative = inhibition: % is set by controls: 0 for no effect and ±100 for the full control effect
Outline: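 Antagonist mode: compound-treated TSHR-expressing HEK293 cells were stimulated with 1.5 ng/mL TSH (final) in presence of Ro20-1724 for 30 min at RT. HTRF cAMP detection after 1 h; each compound tested at 15 concentrations, triplicate.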

[8] = target: Progesterone receptor (Homo sapiens) (UniProt P06401); experiment: qHTS assay to identify small molecule antagonists of the progesterone receptor (PR) signaling pathway (AID 1346795; active = well fitted inhibition curve with a large enough effect in the signal ratio in the repeat runs, not every such curve was filed as active; inconclusive = weak or mixed curves; the % refers to the signal ratio; note: potency is the fitted concentration of half-maximal effect; for activity change, negative = inhibition: % is set by controls: 0 for no effect and ±100 for the full control effect); details: PR-UAS-bla HEK293T, beta-lactamase FRET ratio, 16 h; activity change, negative = inhibition: at 92.4 µM (top of the series) unless noted
Outline: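 Beta-lactamase reporter, HEK293T PR-UAS-bla line; 2% charcoal-stripped FBS; 6 hr pre-incubation, 37C/5% CO2. Compound + R5020 1 nM final, 16 hr. LiveBLAzer B/G FRET substrate, 2 hr RT; fluorescence intensity read.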

[9] = qHTS assay to identify small molecule antagonists of the estrogen receptor beta (ER-beta) signaling pathway - cell viability counter screen (AID 1259382; active = well fitted curve in the direction sought with a large enough effect in the repeat runs; inconclusive = weak or mixed curves; inactive = no such curve, though single readings can be large; an effect the other way counts as inactive or inconclusive; note: nearly all actives have a fitted effect of over 55% in size; note: potency is the fitted concentration of half-maximal effect)
Outline: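 Tox21 10K library tested in qHTS format on ER-beta-bla HEK293T cells stimulated with 1nM E2; 16 hr treatment at 37C. Same-well CellTiter-Glo luminescence served as the cell viability measure.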

[10] = qHTS assay to identify small molecule agonists of the TGF-beta/Smad signaling pathway - cell viability counter screen (AID 1346829; active = well fitted curve in the direction sought with a large enough effect in the repeat runs; inconclusive = weak or mixed curves; inactive = no such curve, though single readings can be large; an effect the other way counts as inactive or inconclusive; note: potency is the fitted concentration of half-maximal effect; nearly all actives have a fitted effect of over 45% in size)
Outline: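 HEK 293T SBE-bla line, 5 hr compound exposure at 37 C, multiplexed CellTiter-Glo viability read by luminescence.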

[11] = qHTS assay to identify small molecule agonists of the TGF-beta/Smad signaling pathway (AID 1346859; active = well fitted activation curve with a large enough effect in the signal ratio in the repeat runs, not every such curve was filed as active; inconclusive = weak or mixed curves; the % refers to the signal ratio; note: potency is the fitted concentration of half-maximal effect); details: SBE-bla HEK293T, TGF-beta/Smad beta-lactamase reporter, 5 h; activation: at 76.8 µM (top of the series)
Outline: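 Read-out: fluorescence at 460 and 530 nm (405 nm excitation) after a 2 hr room-temperature incubation with beta-lactamase FRET substrate. SBE-bla HEK 293T cells had been treated with test compounds for 5 hr at 37 C.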

[12] = target: Progesterone receptor (Homo sapiens) (UniProt P06401); experiment: qHTS assay to identify small molecule agonists of the progesterone receptor (PR) signaling pathway (AID 1346784); details: PR-UAS-bla HEK293T, beta-lactamase FRET ratio, 16 h; activation: at 92.4 µM (top of the series) unless noted; note: % is set by controls: 0 for no effect and ±100 for the full control effect; nearly all actives have a fitted effect of over 30% in size
Outline: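 HEK 293T PR-UAS-bla reporter cells, 2% charcoal-stripped FBS; 6 hr settle at 37C/5% CO2, compound (DMSO) 16 hr, LiveBLAzer B/G FRET substrate 2 hr RT, fluorescence intensity read.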

[13] = target: Estrogen receptor (Homo sapiens) (UniProt P03372); experiment: qHTS assay to identify small molecule agonists of the estrogen receptor alpha (ER-alpha) signaling pathway in the presence of an antagonist (AID 1259383); note: potency is the fitted concentration of half-maximal effect; nearly all actives have a fitted effect of over 15% in size
Outline: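 In VM7Luc4E2 cells, 4,000 per well, compounds at 15 concentrations were co-incubated 22hr at 37C with 10.0nM final ICI-182,780. Luminescence from the stably transfected 4×ERE-luciferase reporter was recorded 30min after ONE-Glo addition.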

[14] = qHTS assay to identify small molecule agonists of the estrogen receptor alpha (ER-alpha) signaling pathway in the presence of an antagonist - cell viability counter screen (AID 1259386; active = well fitted curve in the direction sought with a large enough effect in the repeat runs; inconclusive = weak or mixed curves; inactive = no such curve, though single readings can be large; an effect the other way counts as inactive or inconclusive;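 note: potency is the fitted concentration of half-maximal effect; cells exposed to compounds for 22 h at 37 °C before the viability read; nearly all actives have a fitted effect of over 30% in size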)
Outline: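 Fluorescent CellTiter-Fluor viability signal from VM7Luc4E2 cells, with the reagent added during the final hour of a 22hr compound exposure at 37C in the presence of 10.0nM ICI-182,780.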
Tags give direction and shape of the fitted curve or compound fluorescence and quenching.

Chain of UniProt P16473 (P16473 whole entry, looked up): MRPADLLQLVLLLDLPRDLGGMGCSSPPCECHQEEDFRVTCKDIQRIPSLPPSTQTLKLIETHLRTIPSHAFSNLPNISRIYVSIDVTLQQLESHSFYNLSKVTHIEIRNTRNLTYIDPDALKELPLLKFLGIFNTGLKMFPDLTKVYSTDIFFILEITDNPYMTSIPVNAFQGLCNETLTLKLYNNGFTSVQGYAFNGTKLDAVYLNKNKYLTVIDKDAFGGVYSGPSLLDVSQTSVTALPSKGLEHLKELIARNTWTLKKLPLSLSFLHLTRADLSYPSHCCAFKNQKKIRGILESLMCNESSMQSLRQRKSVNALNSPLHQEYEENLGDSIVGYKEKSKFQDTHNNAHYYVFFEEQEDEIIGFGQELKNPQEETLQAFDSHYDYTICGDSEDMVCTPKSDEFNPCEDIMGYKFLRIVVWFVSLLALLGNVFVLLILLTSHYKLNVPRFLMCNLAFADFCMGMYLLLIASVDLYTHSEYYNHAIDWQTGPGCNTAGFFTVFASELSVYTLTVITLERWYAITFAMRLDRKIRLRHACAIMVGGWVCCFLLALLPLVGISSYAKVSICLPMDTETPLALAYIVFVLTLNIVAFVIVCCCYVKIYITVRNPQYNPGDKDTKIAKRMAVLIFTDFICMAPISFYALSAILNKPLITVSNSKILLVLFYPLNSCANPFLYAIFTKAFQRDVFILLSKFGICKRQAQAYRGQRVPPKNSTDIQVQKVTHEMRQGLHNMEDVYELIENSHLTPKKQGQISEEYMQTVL
Chain of UniProt P06401 (P06401 whole entry, looked up): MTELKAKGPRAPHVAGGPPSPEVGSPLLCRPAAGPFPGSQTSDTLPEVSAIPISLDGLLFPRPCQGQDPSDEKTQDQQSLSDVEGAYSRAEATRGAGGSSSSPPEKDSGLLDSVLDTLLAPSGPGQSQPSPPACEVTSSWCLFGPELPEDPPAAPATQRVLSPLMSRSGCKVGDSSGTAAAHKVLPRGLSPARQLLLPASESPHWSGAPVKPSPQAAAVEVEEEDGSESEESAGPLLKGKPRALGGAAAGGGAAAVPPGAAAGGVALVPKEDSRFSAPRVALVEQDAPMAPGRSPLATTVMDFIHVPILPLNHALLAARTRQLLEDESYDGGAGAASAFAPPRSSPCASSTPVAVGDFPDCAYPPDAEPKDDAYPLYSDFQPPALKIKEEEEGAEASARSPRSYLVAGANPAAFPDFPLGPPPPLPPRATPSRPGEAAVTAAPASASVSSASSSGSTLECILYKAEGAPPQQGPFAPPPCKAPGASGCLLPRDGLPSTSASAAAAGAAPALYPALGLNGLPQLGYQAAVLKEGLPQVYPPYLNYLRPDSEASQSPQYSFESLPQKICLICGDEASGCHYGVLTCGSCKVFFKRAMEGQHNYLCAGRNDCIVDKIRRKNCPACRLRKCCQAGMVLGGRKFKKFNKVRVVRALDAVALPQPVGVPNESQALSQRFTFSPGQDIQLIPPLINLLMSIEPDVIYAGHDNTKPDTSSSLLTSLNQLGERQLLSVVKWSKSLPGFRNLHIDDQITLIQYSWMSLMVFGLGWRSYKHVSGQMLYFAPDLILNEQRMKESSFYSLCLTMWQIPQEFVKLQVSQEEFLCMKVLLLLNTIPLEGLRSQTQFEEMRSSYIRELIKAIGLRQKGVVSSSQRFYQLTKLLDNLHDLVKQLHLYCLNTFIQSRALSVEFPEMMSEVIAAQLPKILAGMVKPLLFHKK
Chain of UniProt P03372 (P03372 whole entry, looked up): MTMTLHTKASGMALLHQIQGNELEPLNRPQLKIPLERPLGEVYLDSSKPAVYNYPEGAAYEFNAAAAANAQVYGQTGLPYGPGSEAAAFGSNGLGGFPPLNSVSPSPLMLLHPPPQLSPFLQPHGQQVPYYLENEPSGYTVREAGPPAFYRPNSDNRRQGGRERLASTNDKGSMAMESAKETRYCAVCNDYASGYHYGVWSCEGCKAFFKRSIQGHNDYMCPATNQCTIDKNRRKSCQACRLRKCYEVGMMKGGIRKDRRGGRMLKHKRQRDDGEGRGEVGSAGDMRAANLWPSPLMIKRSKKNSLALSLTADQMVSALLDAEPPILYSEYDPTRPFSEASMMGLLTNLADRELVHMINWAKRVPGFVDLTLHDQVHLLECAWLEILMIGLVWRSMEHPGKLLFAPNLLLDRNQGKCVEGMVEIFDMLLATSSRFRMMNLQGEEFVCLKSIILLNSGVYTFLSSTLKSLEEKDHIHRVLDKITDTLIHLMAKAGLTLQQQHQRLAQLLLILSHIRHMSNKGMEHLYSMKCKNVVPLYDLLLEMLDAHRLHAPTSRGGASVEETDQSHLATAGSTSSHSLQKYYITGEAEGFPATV

Which Potency [1] does the source give for `CCCCCCCCCCOS(=O)(=O)O` here?
The Potency was “inactive”.

And the Potency [2]?
The Potency was inconclusive: 68.3 µM [cytotoxic, single point].

And the Potency [3]?
Its Potency is inconclusive: 60.9 µM [cytotoxic, partial curve, poor fit].

And the Potency [4]?
The Potency was inconclusive: 43.1 µM [cytotoxic, partial curve, poor fit].

For `CC(C)NC[C@@H](O)COc1cccc2ccccc12`, which Potency [1] is on record?
Its Potency is “inactive”.

And the Potency [2]?
The Potency was inconclusive: 26.6 µM [cytotoxic].

And the Potency [3]?
The Potency was inconclusive: 13.3 µM [cytotoxic, partial curve].

What about the Potency [4] of the same molecule?
The Potency was inconclusive: 21.1 µM [cytotoxic, partial curve].

And the Potency [5]?
Its Potency is “inactive”.

For `C[C@H]1O[C@@H](n2cc(F)c(=O)[nH]c2=O)[C@H](O)[C@@H]1O`, which Potency [1] is on record?
The Potency was “inactive”.

What about the Potency [2] of the same molecule?
The Potency was “inactive”.

And the Potency [4]?
Its Potency is inconclusive: 13.3 µM [rising, single point].

Which results are given for `[Cl][Eu]([Cl])[Cl]`?
Potency [1]: active: 7.7 µM; Potency [6]: inconclusive: 37.1 µM; Potency [7]: inconclusive: 48.6 µM [rising, partial curve]; activity change, negative = inhibition [8]: inconclusive: 16.9%

Which Potency [1] does the source give for `CCCCCCCCC/C=C/CC1CC(=O)OC1=O` (centres undefined) here?
Its Potency is “inactive”.

And the Potency [2]?
The Potency was inconclusive: 68.9 µM [cytotoxic, partial curve, poor fit] and inconclusive: 48.6 µM [cytotoxic, partial curve].

And the Potency [5]?
Its Potency is “inactive”.

Which results are given for `CN(C)C(=O)NC1(c2ccccc2)CCN(CC[C@@]2(c3ccc(F)c(F)c3)CN(C(=O)c3ccccc3)CCO2)CC1`?
Potency [1]: inconclusive: 7.14 µM [inhibitor, full curve, poor fit]; Potency [9]: inconclusive: 56.7 µM [cytotoxic]; Potency [3]: inconclusive: 22.6 µM [cytotoxic, full curve]; Potency [10]: inconclusive: 40.5 µM [rising, partial curve, poor fit]

With `C[C@]12CCC(=O)C=C1[C@@H]1C[C@@H]1[C@H]1[C@@H]3[C@@H]4C[C@@H]4[C@@]4(CCC(=O)O4)[C@@]3(C)CC[C@@H]12` as the molecule, how does the Potency [1] read?
The Potency was inconclusive: 18.8 µM [inhibitor, partial curve, poor fit].

What about the Potency [2] of the same molecule?
Its Potency is inconclusive: 33.5 µM [cytotoxic, single point].

And the Potency [4]?
The Potency was inconclusive: 0.188 µM [rising, partial curve, poor fit].

What about the Potency [11] of the same molecule?
The Potency was inconclusive: 12 µM [rising, partial curve].

What does the source list for `CCCCCCCCCCCCCCCC(=O)OC/C=C(C)/C=C/C=C(C)/C=C/C1=C(C)CCCC1(C)C`?
Potency [1]: inconclusive: 6.11 µM [inhibitor, single point]; Potency [2]: inactive; Potency [8]: inactive; Potency [4]: inactive

With `COc1ccc([C@@H]2Sc3ccccc3NC(=O)[C@@H]2O)cc1` as the molecule, how does the Potency [1] read?
The Potency was “inactive”.

And the Potency [9]?
The Potency was “inactive”.

And the Potency [7]?
Its Potency is “inactive”.

And the activity change, negative = inhibition [8]?
The activity change, negative = inhibition was inconclusive: -50.1% [at 42.5 µM].

And the Potency [3]?
The Potency was inconclusive: 5.96 µM [rising, full curve, poor fit].

Which Potency [1] does the source give for `CCCC[P+](CCCC)(CCCC)CCCC` here?
Its Potency is inconclusive: 609 nM [inhibitor, single point] and inconclusive: 15.7 µM [inhibitor, full curve].

And the Potency [2]?
The Potency was inconclusive: 54.3 µM [cytotoxic, partial curve] and inconclusive: 62.3 µM [cytotoxic, partial curve] and inconclusive: 54.5 µM [cytotoxic, single point].

And the Potency [4]?
Its Potency is inconclusive: 60.9 µM [cytotoxic, partial curve] and inconclusive: 31.2 µM [cytotoxic].

And the Potency [10]?
The Potency was inconclusive: 0.974 µM [cytotoxic, full curve, poor fit].

What about the Potency [11] of the same molecule?
Its Potency is inconclusive: 27.5 µM [rising, partial curve] and inconclusive: 56 µM [rising, partial curve] and inconclusive: 12.3 µM [rising, partial curve].

For `O=[N+]([O-])c1ccc(CCO)cc1`, which Potency [1] is on record?
The Potency was inconclusive: 68.7 µM [inhibitor, single point].

What about the cAMP activity change [6] of the same molecule?
Its cAMP activity change is inconclusive: 4.08%.

Which results are given for `CN1C(C)(C)CCCC1(C)C`?
Potency [1]: inactive; Potency [2]: inactive; activity change, negative = inhibition [8]: inconclusive: 3.17% [at 42.5 µM]; Potency [3]: inconclusive: 37.6 µM [rising, single point]; Potency [4]: inactive

For `C=C(C)C(=O)OCCC(C)OC(=O)C(=C)C` (centres undefined), which Potency [1] is on record?
The Potency was “inactive”.

What about the Potency [9] of the same molecule?
Its Potency is “inactive”.

For `OCC(CBr)(CBr)CBr`, which Potency [1] is on record?
The Potency was inconclusive: 30.5 µM [inhibitor, full curve].

What about the Potency [2] of the same molecule?
The Potency was “inactive”.

And the Potency [12]?
The Potency was “inactive”.

What about the Potency [8] of the same molecule?
Its Potency is active: 34.2 µM.

What about the Potency [4] of the same molecule?
The Potency was inconclusive: 68.3 µM [rising, single point].

With `CCCCCCOc1ccc(N)cc1` as the molecule, how does the Potency [1] read?
Its Potency is inconclusive: 68.6 µM [inhibitor, single point].

What about the Potency [9] of the same molecule?
Its Potency is inconclusive: 43.3 µM [cytotoxic, partial curve, poor fit].

What about the Potency [13] of the same molecule?
The Potency was inconclusive: 8.63 µM [activator, full curve, poor fit].

What about the Potency [8] of the same molecule?
Its Potency is inconclusive: 54.5 µM [falling, partial curve].

With `COc1ccc(N)c(OC)c1` as the molecule, how does the Potency [1] read?
The Potency was inconclusive: 68.6 µM [inhibitor, single point].

And the Potency [6]?
The Potency was inconclusive: 17.5 µM.

And the Potency [7]?
Its Potency is inconclusive: 26.3 µM [falling, single point].

And the Potency [14]?
Its Potency is inconclusive: 61.1 µM [cytotoxic, partial curve].

And the Potency [4]?
Its Potency is inconclusive: 68.6 µM.

Reference: PubChem BioAssay (Tox21)
